This passage reports self-cleavage results from the RNAGym collection of RNA variant scans (doi:10.1093/nar/gkz1192).

Read counts are not given, so values of variants with three or more changes are uncertain.

B1: CPEB3 Ribozyme (parent)
chain: UAACAGGGGGCCACAGCAGAAGCGUUCACGUCGCAGCCCCUGUCAGAUUCUGGUGAAUCUGCGAAUUCUGCUGUAUAUCUC

The variants in the data set derive from B1. In words: self-cleavage, relative activity (ratio to wild type); higher = more cleavage; in vitro, sequencing. In short, it runs like this: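 Relative activity compares each variant's cleaved/total read fraction with that of the unmutated ribozyme. To get these fractions, barcoded CPEB3 ribozyme libraries from rounds of error-prone PCR were transcribed with T7 RNA polymerase for 5 hours at 37°C and then given 15 min of DNase I treatment before EDTA was added. The RNAs were reverse transcribed with template switching and sequenced on Illumina, and DNA sequencing linked barcodes to variants. A minimum of 5 reads applied, and three batches were averaged.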
For the variant U26A A47G G63A A75G, the self-cleavage came to 0.46. Next, U25C A28G U43C A65U U76A: 0.05; U25G U67C U80C: 0.13; U26A A35G A47C G63A U74A: 1.15.

Take U25C A35G G36A A45U U58C: the self-cleavage is 0.14. As for U25C U41G U72C, the figure is 0.23; as for U25C A35G C40U G42A A45U U60C, 0.09; as for U25C G61C U72G, 0.12. Next, U25C G30C A56U: 0.06; U25C U26C A47U: 0.16. As for U25C A35G A57G U60C U80C, the figure is 0.13; as for U25C A35G U54A A64U, 0.08. Regarding U25C C62U A65G U72G C81A, the self-cleavage amounted to 0.1. As for U25C A56U U69C U76C, the figure is 0.03; as for U25C C38A U49C U54C C71A, 0.11. As for U25C U31A C39U C40A U41C U72C, the figure is 0.18. Take U25C U51C G61C C62A U80C: the self-cleavage amounted to 0.14. In the case of U25C A47U A65U C71G, the self-cleavage is 0.04.

Take U25C U26A C29G U54C U58C: the self-cleavage stood at 0.07. With U25C A28G G61A U67C, the self-cleavage is 0.08. As for U25C A56U U60A U66G, the figure is 0.11.

Consider U25C U31C A35U, for which the self-cleavage was determined as 0.28.

With U25C C32U U54A U76C, the self-cleavage came to 0.15.

With U25C A28U A64G U72C, the self-cleavage turned out to be 0.17. As for U25C A56G A64G U76A, the figure is 0.37. Turning to U26A A47G U48C A56C U69A C71U, the self-cleavage was 0.19. As for U25C U31A U54A, the figure is 0.08; as for U26A A56U U60C U66C U72C, 0.28; as for U25C U58C A64U U69C, 0.19. As for U25A U51C U80C, the figure is 0.34. Next, U25C A35G G36U: 0.21; U25C C40U A56G A64G: 0.19; U25A U54C A57G A75G: 0.1. For U25C G70A A75G U76C, the self-cleavage was determined as 0.14. As for U26A A35U U43C U49C U51C C59G U80C, the figure is 0.16. In the case of U26A C34U U43A A45G U72A, the self-cleavage turned out to be 0.06. Take U25C U31C U69C: the self-cleavage turned out to be 0.09.

Take U25C C29U C68U: the self-cleavage was 0.19.

As to U25C U54A A77G, the self-cleavage amounted to 0.22. As for U25C U31C U41C C68A, the figure is 0.13; as for U25C U43A A45U U78C, 0.17; as for U26A A35G U58A U60A, 0.33. As for U25C A45G A77U, the figure is 0.07. As for U25A U60C U67C U69A, the self-cleavage came to 0.07. Consider U25C A45G A56G, for which the self-cleavage was determined as 0.27. Next, U25C U51C U54A A56U U74C: 0.08; U25C A56U U58G U60A U66G: 0.12; U25C U26C U41C U78A: 0.06. As for U25G C40U A64G U69A U72A, the figure is 0; as for U25C U31A U78C, 0.07. As for U25C U41G U78C, the figure is 0.3. Take U25C C32A C38U U78C: the self-cleavage turned out to be 0.14. As for U26A A35U U54C, the figure is 0.4; as for U25G U51C U67A, 0.5; as for U25C A28C G36A U58C U60C, 0.08. As for U26A A35G G70U U76A, the figure is 1.1; as for U25C U31A A35G, 0.08; as for U25G U31G U43A A56G, 0.1. As for U25C U31C A35G U43A, the figure is 0.2; as for U25C U41C U43A U76C, 0.26; as for U25C C34U A45U U67A, 0.06. For U25A U51C U60C, the self-cleavage turned out to be 0.12. As for U25C U43C U48A U58C, the figure is 0.14; as for U25C U51C U74A U78A, 0.05.

Turning to U26A C29A A35U, the self-cleavage was found to be 0.16. As for U25C A45G U54C U60G U67A, the figure is 0.11; as for U25A U66C A75G U80C, 0.07. Next, U25C A35U A47G A77G: 0.1; U25C U41G U54C U78C: 0.14; U25C A28G U74C: 0.11. Next, U25C U26A C44A: 0.15; U25C G36A U54C A56G C62U: 0.13; U25C U43A U66C U72A: 0.09.

Consider U25C U26C A56G, for which the self-cleavage is 0.27. Take U25C A28G U43C C68A: the self-cleavage was 0.07. As for U25C A45U A57G, the figure is 0.39; as for U25C U43C U66C U74A A75U U76C, 0.08; as for U25C U31G A65G, 0.14.

U25C C34U A45U U51C: the self-cleavage was determined as 0.06. Turning to U25C U41C G46A U66C U78C, the self-cleavage was determined as 0.05.

On to U25C A28U C40U A45G A65C, for which the self-cleavage was 0.15. Consider U26A A45G G55A, for which the self-cleavage turned out to be 0.27. Next, U25C U51C A64U U69A: 0.04; U25G A47G U51A: 0.48. Consider U25C A28G G55A U69C U78A U80C, for which the self-cleavage came out at 0.07. For the variant U25C A57G U58C U72A, the self-cleavage turned out to be 0.22. As for U25C U41C A45U, the figure is 0.16; as for U25G U72A A75G, 0.28. Consider U26A A65U U66C, for which the self-cleavage was 0.3.

Regarding U26A A28G U74C, the self-cleavage worked out at 0.77. Turning to U25C U43C A56G A77G, the self-cleavage was found to be 0.14. Consider U25C U31A U51A G52A U76A A77G, for which the self-cleavage was 0.23. As for U25C U26C A45U A47G U60C U74C, the figure is 0.03. Next, U25C A45U U48C A56U: 0.06; U26A A35G G53A G63A: 1.22; U25C A45C A47G A57C U58C: 0.03. Turning to U25C U54C U74C U78C, the self-cleavage is 0.14.

Regarding U25C U41G U54C U80C, the self-cleavage was 0.13. Turning to U25G A28G U49C U78C, the self-cleavage stood at 0.08. Next, U25C A45G G55A U58C U72A U76C: 0.05; U25C U41A A56U: 0.18.

U25C A35G U69C: the self-cleavage is 0.15. Next, U25C A57G A64G: 0.08. As for U25C U49C C62G U80C, the figure is 0.14. As for U25C U31G U43C A56G A65U A75G, the figure is 0.05. With U25C G30A G61C U72G, the self-cleavage is 0.16. For U25A U54A C62U A77U, the self-cleavage was found to be 0.19. Next, U25C A57G U78A: 0.19. As for U25C A57G U78C, the figure is 0.29; as for U25G A28G U80C, 0.17. Consider U26A C34G A65U U67C G73A, for which the self-cleavage turned out to be 0.04. With U25A U43G A64U U72C, the self-cleavage was 0.35.

Take U25A U49C A64G: the self-cleavage came out at 0.13.

As to U25C A35G U58G, the self-cleavage came out at 0.26. As for U25C A35G U58A, the figure is 0.2; as for U25G U49C A64U, 0.07; as for U26A C62U A65G, 0.29. Next, U25C U49C G55U G61C: 0.07; U26A C68G U69C: 0.11; U25C U58C U66C: 0.18. As for U25C U60C U66C A77G, the figure is 0.17; as for U25C C50U U60C A64G, 0.12.

As for U25C U72G U78C, the self-cleavage came to 0.19. As for U26A A45U U51A U66C, the figure is 0.12; as for U25C C27U A56U, 0.15; as for U25C U31A U41C U67C, 0.41. Next, U25C A35U C39U G52A U72C: 0.08; U25C C40U G52C U54C: 0.13; U25C U31C U67C: 0.14. As for U25C U66C U76C A77G, the figure is 0.16; as for U25C A35G A45U U54A U58A, 0.08; as for U25C A47G U51A U72A, 0.15. Regarding U25C A28U G30A C39U A77G, the self-cleavage was determined as 0.13. As for U26A A28U A35U U80C, the figure is 0.25; as for U25C U26C U72A, 0.12; as for U25A U51C C62A A65G U67C U80C, 0.09.

For the variant U25C U41C A77G, the self-cleavage came out at 0.27.

For U25C U69A U74A, the self-cleavage amounted to 0.07. As for U25C U26C U31C A64G U80A, the figure is 0.05; as for U25C U72A A75U, 0.08; as for U25C U43A U51C, 0.51. Next, U25C C34U U69C: 0.1; U25C G33A U72A: 0.46; U25C U26G A45U A47G U60C U66C: 0.14. Next, U25C A28U A45G A47G U51C A77G: 0.1; U25C U41C U48A: 0.16; U25C U49C U78G: 0.18.

On to U25C C38A U41A, for which the self-cleavage was 0.32. Turning to U25C C27U A35U U41C, the self-cleavage stood at 0.11. With U25C U41A A45U A64G, the self-cleavage is 0.16. Next, U25A U54A U60A G73A: 0.07; U25C G61U U78A: 0.38; U25C A28G U49C A65U: 0.04.

Consider U25C A57G U69C U74C, for which the self-cleavage was 0.07.

With U25C G46A U76A, the self-cleavage was determined as 0.21. Next, U25C U43A A47G: 0.28. As for U25C U43A U54A U60C U74C, the figure is 0.19. In the case of U25C U26C A28G U41A U48C, the self-cleavage was 0.27. As for U26A C39U U51G U72C, the self-cleavage came to 0.5. As for U25C U48C U74C U78C, the figure is 0.24; as for U25C U78G U80C, 0.06. As for U26A C40U U49C A57C, the figure is 0.16; as for U25G C34G U51A, 0.17.

On to U25C C44U U80C, for which the self-cleavage came to 0.22.

Take U25C A28G G33A U72C: the self-cleavage worked out at 0.24.

Turning to U25C C37G A45G U67C, the self-cleavage stood at 0.16. As for U26A C38A U60A U78C U80C, the figure is 0.18.
